Literature values as cited in PubChem BioAssay AID1259410 (Chemical Carcinogenesis Research Information System (CCRIS), 2018).
The source gives many values for each of these; only a part stands here.

Tested on: rodent tumor promotion studies, tumor incidence
Assay: CCRIS tumor promotion studies
Settings: Route [Carcinogen]: DERMAL, Route [Promoter]: DERMAL, Species: MOUSE
Description: The CCRIS database contains chemical records with carcinogenicity, mutagenicity, tumor promotion, and tumor inhibition test results. It was developed by the National Cancer Institute (NCI). Data are derived from studies cited in primary journals, current awareness tools, NCI reports, and other sources. Test results have been reviewed by experts in carcinogenesis and mutagenesis.
CCRIS provides historical information from the years 1985 - 2011. It is no longer updated.
This is an archive assay for CCRIS tumor promotion studies.

## CCCCCCCCCCCCCC(=O)O[C@@H]1[C@@H](C)[C@@]2(O)[C@@H](C=C(CO)C[C@]3(O)C(=O)C(C)=C[C@@H]23)[C@@H]2C(C)(C)[C@]12OC(C)=O
Carcinogen: ANTI-1,2,3,4-TETRAHYDRO-5,6-DIMETHYLCHRYSENE-1,2-DIOL-3,4-EPOXIDE, 139347-89-0, Carcinogen: ANTI-1,2,3,4-TETRAHYDRO-5,6-DIMETHYLCHRYSENE-1,2-DIOL-3,4-EPOXIDE, 139347-89-0, Doses [Carcinogen]: 0, 33, 100, 400 NMOL IN 0.1 ML ACETONE ONCE, Doses [Carcinogen]: 0, 33, 100, 400 NMOL IN 0.1 ML ACETONE ONCE, Doses [Promoter]: 2.5 UG IN 0.1 ML ACETONE 3/WK FOR 20 WK BEGINNING 10D POST CARCINOGEN DOSE (STUDY DURATION: 21.5 WK), Strain/Sex: CD-1/FEMALE
  outcome: skin:tumor
Carcinogen: ANTI-1,2,3,4-TETRAHYDRO-5-METHYLCHRYSENE-1,2-DIOL-3,4-EPOXIDE, 111901-39-4, Carcinogen: ANTI-1,2,3,4-TETRAHYDRO-5-METHYLCHRYSENE-1,2-DIOL-3,4-EPOXIDE, 111901-39-4, Doses [Carcinogen]: 0, 33, 100, 400 NMOL IN 0.1 ML ACETONE ONCE, Doses [Carcinogen]: 0, 33, 100, 400 NMOL IN 0.1 ML ACETONE ONCE, Doses [Promoter]: 2.5 UG IN 0.1 ML ACETONE 3/WK FOR 20 WK BEGINNING 10 D POST CARCINOGEN DOSE (STUDY DURATION: 21.5 WK), Strain/Sex: CD-1/FEMALE
  outcome: skin: tumor
Carcinogen: DELTAMETHRIN, 52918-63-5, Carcinogen: DELTAMETHRIN, 52918-63-5, Doses [Carcinogen]: 4 MG/KG IN 200 µL ACETONE 3/WK FOR 3 WK, Doses [Promoter]: 0, 5 UG IN 100 µL ACETONE 3/WK FOR 32 WK BEGINNING 1 WK POST CARCINOGEN TREATMENT (STUDY DURATION: 36 WK), Doses [Promoter]: 0, 5 UG IN 100 µL ACETONE 3/WK FOR 32 WK BEGINNING 1 WK POST CARCINOGEN TREATMENT (STUDY DURATION: 36 WK), Strain/Sex: SWISS/FEMALE
  outcome: skin: tumor
Carcinogen: DELTAMETHRIN, 52918-63-5, Carcinogen: DELTAMETHRIN, 52918-63-5, Doses [Carcinogen]: 4 MG/KG IN 200 µL ACETONE 3/WK FOR 3 WK, Doses [Promoter]: 0, 5 UG IN 100 µL ACETONE 3/WK FOR 32 WK BEGINNING 1 WK POST CARCINOGEN TREATMENT (STUDY DURATION: 36 WK), Doses [Promoter]: 0, 5 UG IN 100 µL ACETONE 3/WK FOR 32 WK BEGINNING 1 WK POST CARCINOGEN TREATMENT (STUDY DURATION: 36 WK), Strain/Sex: SWISS/MALE
  outcome: skin: tumor
Carcinogen: DELTAMETHRIN, 52918-63-5, Carcinogen: DELTAMETHRIN, 52918-63-5, Doses [Carcinogen]: 4 MG/KG IN 200 µL ACETONE ONCE, Doses [Promoter]: 0, 5 UG IN 100 µL ACETONE 3/WK FOR 32 WK BEGINNING 1 WK POST CARCINOGEN TREATMENT (STUDY DURATION: 33 WK), Doses [Promoter]: 0, 5 UG IN 100 µL ACETONE 3/WK FOR 32 WK BEGINNING 1 WK POST CARCINOGEN TREATMENT (STUDY DURATION: 33 WK), Strain/Sex: SWISS/FEMALE
  outcome: skin: tumor
Carcinogen: DELTAMETHRIN, 52918-63-5, Carcinogen: DELTAMETHRIN, 52918-63-5, Doses [Carcinogen]: 4 MG/KG IN 200 µL ACETONE ONCE, Doses [Promoter]: 0, 5 UG IN 100 µL ACETONE 3/WK FOR 32 WK BEGINNING 1 WK POST CARCINOGEN TREATMENT (STUDY DURATION: 33 WK), Doses [Promoter]: 0, 5 UG IN 100 µL ACETONE 3/WK FOR 32 WK BEGINNING 1 WK POST CARCINOGEN TREATMENT (STUDY DURATION: 33 WK), Strain/Sex: SWISS/MALE
  outcome: skin: tumor
Carcinogen: DIBENZO[A,L]PYRENE, 191-30-0, Carcinogen: DIBENZO[A,L]PYRENE, 191-30-0, Doses [Carcinogen]: 40 NMOLE IN 100 µL ACETONE ONCE, Doses [Promoter]: 10 NMOL IN 100 µL ACETONE 2/WK FOR 30 WK BEGINNING 1 WK POST CARCINOGEN DOSE (STUDY DURATION: 31 WK), Strain/Sex: NMRI/FEMALE
  outcome: skin: tumor
Carcinogen: DIBENZO[C,G]CARBAZOLE, 194-59-2, Carcinogen: DIBENZO[C,G]CARBAZOLE, 194-59-2, Doses [Carcinogen]: 200 NMOL IN 50 µL ACETONE ONCE, Doses [Promoter]: 0, 2 UG IN 50 µL ACETONE 2/WK FOR 28 WK BEGINNING IMMEDIATELY AFTER CARCINOGEN TREATMENT (STUDY DURATION: 28 WK), Doses [Promoter]: 0, 2 UG IN 50 µL ACETONE 2/WK FOR 28 WK BEGINNING IMMEDIATELY AFTER CARCINOGEN TREATMENT (STUDY DURATION: 28 WK), Strain/Sex: ICR/FEMALE
  outcome: skin: papilloma and carcinoma
Carcinogen: DIBENZ[C,H]ACRIDINE, 224-53-3, Carcinogen: DIBENZ[C,H]ACRIDINE, 224-53-3, Doses [Carcinogen]: 0, 50, 200 NMOL IN 0.2 ML ACETONE ONCE (STUDY DURATION: 150 D), Doses [Carcinogen]: 0, 50, 200 NMOL IN 0.2 ML ACETONE ONCE (STUDY DURATION: 150 D), Doses [Promoter]: 0, 16 NMOL IN 0.2 ML ACETONE 2/WK FOR 20 WK BEGINNING 10 D POST CARCINOGEN DOSE (STUDY DURATION: 150 D), Doses [Promoter]: 0, 16 NMOL IN 0.2 ML ACETONE 2/WK FOR 20 WK BEGINNING 10 D POST CARCINOGEN DOSE (STUDY DURATION: 150 D), Strain/Sex: CD-1/FEMALE
  outcome: skin: papilloma
